Laboratory results reported in US20230278972A1, “SUBSTITUTED HALOALKYL SULFONANILIDE HERBICIDES” (FMC Corporation, priority 2020, published 2023).

Tested on: sedge, umbrella (small-flower umbrella sedge, Cyperus difformis)
Test: Test B1 flooded paddy test, sedge, umbrella
Assay type: in vivo
Conditions: 250 g ai/ha, Flood, applied to paddy water, 2-leaf stage, visually evaluated after 10 to 14 days
From the text: A dash (-) response means no test result.

SMILES | Plant response rating, Sedge, Umbrella (0 to 100 scale, 0 is no effect, 100 is complete control)
Cc1c(NS(=O)(=O)C(F)(F)F)cc(C2=NOC3(CCCC3)C2)c(C)c1C [Compound 380] | 90
Cc1cc(C)c(C2=NOC(C(C)C)C2)cc1NS(=O)(=O)C(F)(F)F (centres unmarked) [Compound 381] | 85
Cc1c(C2=NOC3(CCCC3)C2)cc(N(COC(=O)C(C)(C)C)S(=O)(=O)C(F)(F)F)c(C)c1C [Compound 382] | 90
Cc1cc(C)c(N(COC(=O)C(C)(C)C)S(=O)(=O)C(F)(F)F)cc1C1=NOC(C(C)C)C1 (centres unmarked) [Compound 383] | 75
Cc1cc(C)c(N2CC3(CCCCC3)CC2=O)cc1NS(=O)(=O)C(F)(F)F [Compound 392] | 20
Cc1cc(Cl)c(NS(=O)(=O)C(F)(F)F)cc1N1CCC2(CCCCC2)C1=O [Compound 393] | 95
Cc1cc(Cl)c(NS(=O)(=O)C(F)(F)F)cc1N1CC2(CCCCC2)OC1=O [Compound 394] | 85
Cc1cc(C)c(N(COC(=O)C(C)(C)C)S(=O)(=O)C(F)(F)F)cc1N1CCC2(CCC(F)(F)CC2)C1=O [Compound 397] | 98
COC1CCC2(CC1)CCN(c1cc(NS(=O)(=O)C(F)(F)F)c(C)cc1C)C2=O (centres unmarked) [Compound 398] | 90
Cc1cc(C)c(N(S(=O)(=O)C(F)(F)F)S(=O)(=O)C(F)(F)F)cc1N1CCC2(CCC(C(F)(F)F)CC2)C1=O (centres unmarked) [Compound 399] | 85
Cc1cc(C)c(N2CCC3(CCC(C(F)(F)F)CC3)C2=O)cc1NS(=O)(=O)C(F)(F)F (centres unmarked) [Compound 400] | 95
Cc1cc(C)c(N(COC(=O)C(C)(C)C)S(=O)(=O)C(F)(F)F)cc1N1CCC2(CCC(C)CC2)C1=O (centres unmarked) [Compound 401] | 95
Cc1cc(C)c(N2CCC3(CCC(C)CC3)C2=O)cc1NS(=O)(=O)C(F)(F)F (centres unmarked) [Compound 402] | 85
Cc1cc(C)c(N(COC(=O)C(C)(C)C)S(=O)(=O)C(F)(F)F)cc1N1CCC2(CCC(C(F)(F)F)CC2)C1=O (centres unmarked) [Compound 403] | 20
